# Results: article PMC12136788
# Some of the results follow.
# B1: ENSG00000107863:be:win_2851|CDS|ENSG00000107863|bound_else_gene|NA|bound_elsewhere_windowed (ssRNA)
# RNA: GGGAGUUCUACAGUCCGACGAUCGUUGGUGGAAGUAUUCGGCCAUGGAAACAGAUGUAUGUUGUCCUUCGGGGUCAUUCACUUUACCUGUACAAAGAUAAAAGAGAGCAGACGACUCCGUCUGAGGAAGAGCAGCCCAUCAGUCAACAGAGGAUUGAGCAUCA
# B2: ENSG00000107863:be:win_3551|CDS|ENSG00000107863|bound_else_gene|NA|bound_elsewhere_windowed (ssRNA)
# RNA: GGGAGUUCUACAGUCCGACGAUCGAGUUCCUGGAAAUAAUGCAGCCAUCUCAAGUAUGCAAGAAGAACUCAACAAGGGAAUGGCUGAUAUUGAUAUACAAGAUGAUAAAUGGCGAGAUUUGAAUGUGAUAAGCAGUUUACUAACAACAGAGGAUUGAGCAUCA
# B3: ENSG00000107863:be:win_5751|CDS|ENSG00000107863|bound_else_gene|NA|bound_elsewhere_windowed (ssRNA)
# RNA: GGGAGUUCUACAGUCCGACGAUCACCUGACCAAAUAAACGGAGAAAGCUUCCAGAACGUGAGCAAAAAUGCUAGUUCUGCAGCGAAUGCCCAACCUCAUAAACUGUCUGAAACCCCAGGCAGUAAAGCAGAGUUUCAUCCCUGCAACAGAGGAUUGAGCAUCA
# B4: chr4:174259701:174259819:-|CDS|ENSG00000164117|unk|total|mutant (ssRNA)
# RNA: GGGAGUUCUACAGUCCGACGAUCAAAUCCACUUGGGGUCACUGUUCCAUAUACAAUAAGAACCCACCUUCCGGAUUUUCUUUCCGAAAAUUGUAUAUGCAGCUGGAUGAAGGCAGCCUCACCUUUAAUGCCAACCCAGAUGAGCAACAGAGGAUUGAGCAUCA
# B5: chr11:123942869:123943838:-|CDS|ENSG00000181499|control|control|control (ssRNA)
# RNA: GGGAGUUCUACAGUCCGACGAUCCCGCUAUGAGACCCUGAUGAAUGGCCAUGUCUGUUCCCAACUAGUGCUGGCCUCCUGGCUAGCUGGAUUCCUCUGGGUCCUUUGCCCCACUGUCCUCAUGGCCAGCCUGCCUUUCUGUGGCAACAGAGGAUUGAGCAUCA
# B6: chr5:136976780:136976881:-|3pUTR|ENSG00000152377|msi1|total|mutant (ssRNA)
# RNA: GGGAGUUCUACAGUCCGACGAUCCUUAAAUCCGCAUGUUCCAAUCCAGUCGGCAUUGCCUGAAUACAGCCGCAUCAUACCUACCGUUGGUCUCCGAUAAGAAAUGAACUACUUGAUACCGCAAAGUCCUUUGGCUUCGUAAAUCAACAGAGGAUUGAGCAUCA
# B7: chr6:52498635:52498743:-|3pUTR|ENSG00000065308|msi1|total|mutant (ssRNA)
# RNA: GGGAGUUCUACAGUCCGACGAUCAAAGGGACACGGAUUGUGACAGUUUCACCCCAUUUGUUUCUAACCCCGCUGCCCAGGAUCCGGGUCUGUGGUGUGUUCUGUUUUGUUUUUGGUUUCUCCCUUGUGUCAGUUCUCUUCUGGCAACAGAGGAUUGAGCAUCA
# B8: ENSG00000101574:stop:overlap|stop_codon|ENSG00000101574|stop_codon|NA|stop_codon (ssRNA)
# RNA: GGGAGUUCUACAGUCCGACGAUCAUCAAGCCAGAUGGGGAAUAUUUGGAGUUGUUUGCUCGAAAUUUACAGCCAGGUUGGACUAGUUGGGGCAAUGAAGUUCUCAAAUUUCAGCAUGUGGAUUAUUUUAUUGCUGUGGAGUCUCAACAGAGGAUUGAGCAUCA
# B9: chr2:189754195:189754303:-|CDS|ENSG00000128694|unk|total|mutant (ssRNA)
# RNA: GGGAGUUCUACAGUCCGACGAUCCCAGAGUGCUCCACCAUGAGUGGUGGGAAAGCCACCGAACAUUUGGCCAAACAAGGAAACCGAUUUCAUUUUGACAUCAAACCUCCCUUGCAUCAUGCUAAAAAUUGUGAUUUUUCUUUUCAACAGAGGAUUGAGCAUCA
# B10: ENSG00000196277:stop:overlap|stop_codon|ENSG00000196277|stop_codon|NA|stop_codon (ssRNA)
# RNA: GGGAGUUCUACAGUCCGACGAUCCACCAGUAAGAAAGAGUGUACAAAAGUCUGUUACUUGGUACACUAUCCCACCAACAGUAUAGCUUUUGACUGCUUUCCCAAAGAUUUUUUUUUUUGGCUGUACAGUGGAACUUGGAUUACCAACAGAGGAUUGAGCAUCA
# B11: chr1:20652278:20652361:-|3pUTR|ENSG00000244038|msi1_unk|FALSE|overlapping (ssRNA)
# RNA: GGGAGUUCUACAGUCCGACGAUCGACUGAGGGGCUAGAGCCCUCUCCGCACAGCGUGGAGACGGGGCAAGGAGGGGGGUUAUUAGGAUUGGUGGUUUUGUUUUGCUUUGUUUAAAGCCGUGGGAAAAUGGCACAACUUUACCUCAACAGAGGAUUGAGCAUCA
# B12: chr8:116846039:116846140:-|3pUTR|ENSG00000164754|msi1|FALSE|bound_elsewhere (ssRNA)
# RNA: GGGAGUUCUACAGUCCGACGAUCACAUUCAAUAUGAUGUGCCUGUAAACCAAGGAGUUUUCCCCGUUUGUAAAAAGACAUUGUAGAUAAUUGAAUGUUUGAUUUUAGAAAGGUCAUUAGUUUCUUGUUACACAUUUUGUUAGUCAACAGAGGAUUGAGCAUCA
# B13: chr8:12728900:12729063:-|CDS|ENSG00000154359|control|control|control (ssRNA)
# RNA: GGGAGUUCUACAGUCCGACGAUCAACGUGCAUUUCUUACCGGACGGAAGGUCUGUGGUUGAUACAGUUGGAGGAAAGCGGUUUAGGGUUUUAAAAAGAGGAAUGAAAGAUGGAUAUUGCACUGCCGACAUUGAAUAUCUGGAACAACAGAGGAUUGAGCAUCA
# B14: chr2:46903789:46903890:-|3pUTR|ENSG00000180398|msi1|total|mutant (ssRNA)
# RNA: GGGAGUUCUACAGUCCGACGAUCAAAUUUCUGCAGCUGGCUUGAAUUUCUCCCCAGAAAAUGGGUUUUUCUUUUCUAUUGCACCGUCAGGCUGCAAAUUUCCAAACUUUUAUGCUUUGCUUCCCUUAUUUAUAAGGGAAUGCCCAACAGAGGAUUGAGCAUCA
# Target: MSI1 full-length (mouse, UniProt Q61474 1-362)
# Assay: nsRBNS (natural sequence RNA bind-n-seq); RBNS binding buffer (assumed for nsRBNS): 25 mM Tris pH 7.5, 150 mM KCl, 3 mM MgCl2, 0.01% Triton X-100, 500 ug/ml BSA, 20 U/ml SUPERase-In, 4 C; UNK is unkempt and MSI1 is Musashi-1; names of the RNAs are library labels; protein concentration not given here; high values mean tight binding
# Chain of UniProt Q61474 (Q61474 whole entry): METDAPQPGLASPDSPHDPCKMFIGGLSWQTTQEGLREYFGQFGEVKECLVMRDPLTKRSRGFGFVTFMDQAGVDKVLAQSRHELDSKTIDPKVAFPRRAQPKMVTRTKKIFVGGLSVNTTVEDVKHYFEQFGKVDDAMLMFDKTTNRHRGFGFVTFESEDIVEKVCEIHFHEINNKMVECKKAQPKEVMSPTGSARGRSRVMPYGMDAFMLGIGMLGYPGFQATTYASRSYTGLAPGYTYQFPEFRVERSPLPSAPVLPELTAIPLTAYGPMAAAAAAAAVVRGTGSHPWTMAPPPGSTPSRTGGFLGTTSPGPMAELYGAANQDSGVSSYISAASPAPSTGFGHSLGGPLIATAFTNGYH
row,Binder,binding signal [enrichment R]
1,B1,0.427
2,B2,0.7
3,B3,0.256
4,B4,0.29
5,B5,0.477
6,B6,0.478
7,B7,0.496
8,B8,0.382
9,B9,0.254
10,B10,0.278
11,B11,0.623
12,B12,11.3
13,B13,0.55
14,B14,0.493
